In all, about 33,000 sequences were measured (“E-score (-0.5 to 0.5)”: median about -0.016, highest 2% from about 0.31 on). The list shows a part of the results.
Each sequence was assayed against Cst6 (UniProt P40535) (assay: PBM E-score (8-mer binding enrichment) (E-score (-0.5 to 0.5)); higher = stronger / more preferred TF binding; most listed sequences are background and not binding sites). Settings: protein concentration: 200 nM; construct: GST-DNA-binding domain.
Description: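 Universal 'all 10-mer' protein binding microarrays (Agilent AMADID 015681) probed with GST-tagged S. cerevisiae TFs (full-length or DBD) made by in vitro transcription/translation (PURExpress), about 100-200 nM. Bound TF was detected with fluorescent anti-GST. Each ungapped 8-mer (which stands for itself and its reverse complement) is scored by the PBM enrichment score (E-score), a modified Wilcoxon-Mann-Whitney statistic from -0.5 to +0.5, computed with the Universal PBM Analysis Suite. Scale: above 0.35 generally sequence-specific binding.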
AGAGGGAA was tested, and the “PBM E-score” value was -0.301.
With CCGCAACC the “PBM E-score” value was -0.0497.
With TGCATACA the “PBM E-score” value was 0.187.
CGGTACTA was tested, and the “PBM E-score” value was -0.129.
In the case of GTAGTCTA, the “PBM E-score” value is reported as 0.0199.
With CTACTAAG the “PBM E-score” value was -0.0171.
ATCCCGAA was tested, and the “PBM E-score” value was 0.00888.
In the case of TAAATTGA, the “PBM E-score” value is reported as 0.188.
With AATGTTCT the “PBM E-score” value was 0.0905.
With AGAGCATG the “PBM E-score” value was -0.224.
With AGTAAACT the “PBM E-score” value was 0.116.
For AAATAGGT, the “PBM E-score” value was 0.0285.
In the case of GCGGACGA, the “PBM E-score” value is reported as 0.0337.
For ACCTGAAG, the “PBM E-score” value was -0.148.
AGCGCGTA was tested, and the “PBM E-score” value was 0.177.
With CGCAAATC the “PBM E-score” value was -0.0243.
In the case of AAGCCTGT, the “PBM E-score” value is reported as -0.0963.
With CGACTGTC the “PBM E-score” value was -0.154.
With CGCCGCAC the “PBM E-score” value was 0.258.
With CTGCCACA the “PBM E-score” value was -0.121.
In the case of ACGCTCAA, the “PBM E-score” value is reported as 0.0731.
For CGCGCCCG, the “PBM E-score” value was -0.265.
With AGCACAAG the “PBM E-score” value was -0.151.
With AGATCCGA the “PBM E-score” value was -0.0352.
For ATTTCCGC, the “PBM E-score” value was -0.00519.
In the case of CGAGAGCA, the “PBM E-score” value is reported as 0.0243.
For AATTTCCC, the “PBM E-score” value was -0.0382.
With AGACCGGA the “PBM E-score” value was -0.142.
With ATCCCCTA the “PBM E-score” value was -0.332.
In the case of AACCGGTC, the “PBM E-score” value is reported as -0.0896.
With CTTGAAAA the “PBM E-score” value was 0.216.
CAGGCTAA was tested, and the “PBM E-score” value was -0.131.
With CGAAAACA the “PBM E-score” value was 0.107.
GTTACCTA was tested, and the “PBM E-score” value was -0.0465.
In the case of CATTAGCC, the “PBM E-score” value is reported as -0.0736.
With AGCCGACC the “PBM E-score” value was -0.292.
In the case of CCACTGAA, the “PBM E-score” value is reported as 0.0641.
CGTTGAAA was tested, and the “PBM E-score” value was -0.0591.
With ACGAGATG the “PBM E-score” value was 0.0179.
GCGTAAAA was tested, and the “PBM E-score” value was 0.0958.
With ATGCGATG the “PBM E-score” value was -0.00846.
With GCTCTCTA the “PBM E-score” value was -0.149.
TCACCAAA was tested, and the “PBM E-score” value was 0.326.
With CTTTTAGC the “PBM E-score” value was -0.0444.
In the case of GGATGATA, the “PBM E-score” value is reported as 0.125.
In the case of AACTCTAA, the “PBM E-score” value is reported as 0.00936.
For CTGGCCAG, the “PBM E-score” value was -0.187.
CTCTAAAC was tested, and the “PBM E-score” value was -0.0277.
With GCGAGCAA the “PBM E-score” value was -0.168.
For AACTATTC, the “PBM E-score” value was 0.0444.
With ACTCCACC the “PBM E-score” value was -0.0992.
For GGTGGTCA, the “PBM E-score” value was -0.102.
TGTGGAAA was tested, and the “PBM E-score” value was 0.186.
In the case of ATCTTTTC, the “PBM E-score” value is reported as 0.249.
With AGGCAGAG the “PBM E-score” value was -0.0845.
For ATTCCCGC, the “PBM E-score” value was 0.102.
In the case of CCCGCTGA, the “PBM E-score” value is reported as -0.223.
For AGGAGCCG, the “PBM E-score” value was -0.0197.
With CCCTATTC the “PBM E-score” value was -0.204.
In the case of AGAGAACA, the “PBM E-score” value is reported as 0.195.
In the case of ACATAGCC, the “PBM E-score” value is reported as -0.0756.
With GTTATCGA the “PBM E-score” value was -0.0748.
For ACTTAAAA, the “PBM E-score” value was 0.185.
For ATGCGCGC, the “PBM E-score” value was 0.153.
With ACGGTTGC the “PBM E-score” value was -0.0609.
With AAGGGGCC the “PBM E-score” value was -0.178.
In the case of CTGGCCAA, the “PBM E-score” value is reported as -0.0734.
For CGGCTATC, the “PBM E-score” value was -0.0401.
CACATTCC was tested, and the “PBM E-score” value was -0.0912.
With CCCATAGG the “PBM E-score” value was -0.175.
GTATCAAA was tested, and the “PBM E-score” value was 0.148.
In the case of CCTTGGCA, the “PBM E-score” value is reported as -0.209.
With AAGCCCTA the “PBM E-score” value was 0.0415.
In the case of CTTAACAC, the “PBM E-score” value is reported as 0.0258.
For CCCTGCAA, the “PBM E-score” value was -0.0363.
ACGGGAGT was tested, and the “PBM E-score” value was -0.0995.
For CACCTCGC, the “PBM E-score” value was -0.189.
AGTTATTG was tested, and the “PBM E-score” value was 0.0718.
In the case of CAAGCGTA, the “PBM E-score” value is reported as -0.00411.
AAGCTTGC was tested, and the “PBM E-score” value was -0.0166.
With GGACGCTA the “PBM E-score” value was -0.138.
CCGTAGAA was tested, and the “PBM E-score” value was -0.0325.
ACCGCGAC was tested, and the “PBM E-score” value was 0.0329.
With GGCCCATA the “PBM E-score” value was -0.154.
In the case of TTAAGAAA, the “PBM E-score” value is reported as 0.114.
In the case of AAAAATAA, the “PBM E-score” value is reported as 0.292.
CACGTGGG was tested, and the “PBM E-score” value was -0.0725.
AGAAAATA was tested, and the “PBM E-score” value was 0.205.
For CCCGGTCC, the “PBM E-score” value was -0.304.
With GCTCAAGC the “PBM E-score” value was -0.0645.
ATTCCCGG was tested, and the “PBM E-score” value was 0.041.
AGGTAGAG was tested, and the “PBM E-score” value was -0.201.
In the case of CGGCAGTA, the “PBM E-score” value is reported as 0.0101.
In the case of ACAGCGAC, the “PBM E-score” value is reported as -0.145.
With TGGCCCCA the “PBM E-score” value was -0.31.
For ACTTGGGC, the “PBM E-score” value was -0.114.
In the case of CCTAAGAG, the “PBM E-score” value is reported as -0.0395.
AGAGAACC was tested, and the “PBM E-score” value was -0.218.
In the case of AAATCTTC, the “PBM E-score” value is reported as 0.0186.
With GAATTCCA the “PBM E-score” value was 0.123.
With ACCTGCCT the “PBM E-score” value was -0.0953.
ATACGGAA was tested, and the “PBM E-score” value was 0.145.
CTAGATAG was tested, and the “PBM E-score” value was -0.197.
With CCGATCGA the “PBM E-score” value was 0.046.
For AGTCACGC, the “PBM E-score” value was -0.07.
With TCCCAGGA the “PBM E-score” value was -0.272.
For GATAGAAA, the “PBM E-score” value was 0.0795.
For CGTCCAGA, the “PBM E-score” value was -0.109.
GCATATCC was tested, and the “PBM E-score” value was -0.156.
With ACGTGTAC the “PBM E-score” value was 0.113.
For CTCGCCGA, the “PBM E-score” value was -0.136.
In the case of AGTATAAT, the “PBM E-score” value is reported as 0.144.
For ATCGGATC, the “PBM E-score” value was 0.0363.
In the case of AGGCGTTA, the “PBM E-score” value is reported as 0.0945.
CAATCCAA was tested, and the “PBM E-score” value was 0.0209.
For CAAAGATA, the “PBM E-score” value was 0.202.
TACTACCA was tested, and the “PBM E-score” value was -0.209.
For GACTACTC, the “PBM E-score” value was -0.00616.
With CCGTGCAG the “PBM E-score” value was 0.153.
With ATCTTGCA the “PBM E-score” value was 0.199.
With CCGGACAC the “PBM E-score” value was -0.327.
For GAAGCACC, the “PBM E-score” value was -0.0259.
For CCTGAATA, the “PBM E-score” value was 0.0941.
In the case of CACACAGC, the “PBM E-score” value is reported as 0.157.
With AATATTGC the “PBM E-score” value was 0.257.
For AATGACGA, the “PBM E-score” value was 0.451.
CCTTGTCA was tested, and the “PBM E-score” value was -0.097.
With AGCGCTCA the “PBM E-score” value was -0.15.
With AAATGTGA the “PBM E-score” value was 0.121.
AGATACTG was tested, and the “PBM E-score” value was 0.112.
In the case of ACTCTCAC, the “PBM E-score” value is reported as -0.0237.
With CATAATAA the “PBM E-score” value was 0.267.
In the case of AATTGCGT, the “PBM E-score” value is reported as 0.315.
In the case of ACCGTATA, the “PBM E-score” value is reported as -0.0183.
AGACGGAT was tested, and the “PBM E-score” value was 0.122.
ATAGAAAA was tested, and the “PBM E-score” value was 0.145.
For AAGCCGCT, the “PBM E-score” value was -0.0568.
In the case of CAGAGGCA, the “PBM E-score” value is reported as -0.0873.
For CGAATTCG, the “PBM E-score” value was 0.00769.
GAACGCGA was tested, and the “PBM E-score” value was -0.0165.
In the case of AGAGCAGA, the “PBM E-score” value is reported as -0.00156.
In the case of ATATGTAC, the “PBM E-score” value is reported as 0.145.
CGCGCACC was tested, and the “PBM E-score” value was 0.0102.
With AATATTTA the “PBM E-score” value was 0.305.
With ATGCACTG the “PBM E-score” value was -0.087.
With AAATTCGA the “PBM E-score” value was -0.0273.
GGCATTGA was tested, and the “PBM E-score” value was 0.0677.
With AGATCGAC the “PBM E-score” value was -0.0171.
With TCCACACA the “PBM E-score” value was 0.101.
With CTAAAAAG the “PBM E-score” value was 0.0907.
In the case of CAGTGTCG, the “PBM E-score” value is reported as -0.156.
GCCAAGGC was tested, and the “PBM E-score” value was -0.223.
CCAAATGA was tested, and the “PBM E-score” value was 0.191.
With AGCTGGGC the “PBM E-score” value was -0.301.
For GCAGTCAA, the “PBM E-score” value was -0.184.
CGAACGCC was tested, and the “PBM E-score” value was -0.107.
In the case of AGCGGAAT, the “PBM E-score” value is reported as -0.0286.
In the case of GATCATTA, the “PBM E-score” value is reported as 0.215.
With ACACGGTC the “PBM E-score” value was -0.0984.
With AGTTACAG the “PBM E-score” value was 0.0901.
With CACGATAG the “PBM E-score” value was -0.00952.
With CCAACACC the “PBM E-score” value was -0.294.
AAAGTGTG was tested, and the “PBM E-score” value was 0.115.
In the case of AAAACTCC, the “PBM E-score” value is reported as -0.175.
GTCGTAAA was tested, and the “PBM E-score” value was 0.159.
For AGAACAAT, the “PBM E-score” value was 0.25.
For CGTATAGC, the “PBM E-score” value was 0.0302.
In the case of ATTGGGAG, the “PBM E-score” value is reported as -0.0503.
For ACCAAAGA, the “PBM E-score” value was 0.143.
For TAGCAATA, the “PBM E-score” value was 0.165.
For CACTACTC, the “PBM E-score” value was 0.0119.
For CGTATATA, the “PBM E-score” value was 0.269.

Source: the supplement of paper PMC3334620
